{
  "source": "PubChem BioAssay AID624296",
  "about": "(National Center for Advancing Translational Sciences (NCATS), 2012)",
  "note": "The whole screen tested about 350,000 compounds, of which about 9,900 (2.8%) were called active. The shares of active, inactive and inconclusive entries below differ from those in the screen. The call rests on the fitted dose curve; in most records, active means well fitted activation curve with a large enough effect; inconclusive means small, poorly fitted or top-dose-only effect; inactive means no such curve, though single readings can be large or run the other way. Potencies of inconclusive entries are left out as doubtful fits. Potency means the concentration at half of the fitted maximal effect; tags describe the fitted curve by direction and shape.",
  "data": [
    {"assay": "A quantitative high throughput screen for small molecules that induce DNA re-replication in MCF 10a normal breast cells; further: nearly all actives have a fitted effect of over 50% in size.", "conditions": "MCF 10A DNA re-replication, Hoechst nuclear intensity, 48 h; series mostly up to 46.1 µM", "values": [
      {"smiles": "Cn1c(N)c(C(=O)COc2ccc(C#N)cc2)c(=O)n(C)c1=O", "Potency": "inactive"},
      {"smiles": "COC(=O)C1=C(C)N(Cc2ccccc2)C(=NCC(C)C)N[C@H]1c1ccccc1", "Potency": "inconclusive [activator, single point]"},
      {"smiles": "CC(O)C1CCC2C3CCC4CC(O)CCC4(C)C3C(=O)CC12C", "note": "(stereo unspecified)", "Potency": "inactive"},
      {"smiles": "CCN(C(=O)COC(=O)C1CCN(S(=O)(=O)c2cccs2)CC1)c1ccccc1", "Potency": "inactive"},
      {"smiles": "CCOc1cc(C(=S)N2CCOCC2)ccc1OS(=O)(=O)c1ccccc1", "Potency": "inconclusive [activator, single point]"},
      {"smiles": "O=C(COc1ccc(Cl)cc1)Nc1ncc([N+](=O)[O-])s1", "Potency": "inconclusive [activator, single point]"},
      {"smiles": "COc1nc(N2CCCCCC2)nc(N2CCCCCC2)n1", "Potency": "active: 18.4 µM"},
      {"smiles": "Cc1cc(=O)c2ccc(C(F)(F)F)cc2[nH]1", "Potency": "inconclusive [activator, single point]"},
      {"smiles": "Cc1cc(C)c(S(=O)(=O)N2CCCC(C(=O)NC3CCCC3)C2)c(C)c1", "note": "(stereo unspecified)", "Potency": "inactive"},
      {"smiles": "O=C(c1ccc(Cl)cc1)N1CCC(C(=O)N2CCCc3ccccc32)CC1", "Potency": "inactive"},
      {"smiles": "O=C1Nc2cc3c(cc2Sc2ccccc21)OCCO3", "Potency": "inconclusive [activator, single point]"},
      {"smiles": "COc1ccc(C)cc1Nc1nc(-c2c(C)[nH]c3ccccc23)cs1", "Potency": "active: 18.4 µM"},
      {"smiles": "COc1ccc(CN(C(=S)Nc2ccccc2)C2CC(=O)N(c3ccccc3)C2=O)cc1", "note": "(stereo unspecified)", "Potency": "inconclusive [activator, partial curve, poor fit]"},
      {"smiles": "CCC(C)C(=O)Nc1nc(-c2ccc3c(c2)NC(=O)CO3)cs1", "note": "(stereo unspecified)", "Potency": "inactive"},
      {"smiles": "CC1CC(Nc2ccccc2)c2ccccc2N1C(=O)c1ccccc1F", "note": "(stereo unspecified)", "Potency": "inconclusive [activator, single point]"},
      {"smiles": "O=C(NCCS(=O)(=O)N1CCN(c2ccc(F)cc2)CC1)C12CC3CC(CC(C3)C1)C2", "Potency": "inconclusive [activator, full curve, poor fit]"},
      {"smiles": "Cc1cc(Oc2ccc(Cl)cc2)nc(-c2ccccc2O)n1", "Potency": "inconclusive [activator, partial curve, poor fit]"},
      {"smiles": "Cc1ccc(Nc2nc(N)nc(CSc3ncccn3)n2)cc1", "Potency": "inactive"},
      {"smiles": "COCCn1c(SC(C)C(=O)Nc2ncc(Cl)cc2Cl)nc2ccccc21", "note": "(stereo unspecified)", "Potency": "inactive"},
      {"smiles": "COC(=O)C1C(c2ccccc2)C(C(=O)OCc2ccco2)C1c1ccccc1", "note": "(stereo unspecified)", "Potency": "inconclusive [activator, single point]"},
      {"smiles": "O=C(NCCn1cc(SCc2ccc(F)cc2)c2ccccc21)c1c(F)cccc1F", "Potency": "inconclusive [activator, partial curve]"},
      {"smiles": "CC(OC(=O)CCCSc1nc2ccccc2s1)C(=O)NC(N)=O", "note": "(stereo unspecified)", "Potency": "inactive"},
      {"smiles": "CCOc1ccc(N2CC(NC(=O)c3ccc4ccccc4c3)CC2=O)cc1", "note": "(stereo unspecified)", "Potency": "inconclusive [activator, single point]"},
      {"smiles": "CC12CCC(=O)N1C(C(=O)Nc1ccc(S(=O)(=O)N3CCCCC3)cc1)CS2", "note": "(stereo unspecified)", "Potency": "inactive"},
      {"smiles": "CCCCCOc1ccc(Cn2ccnc2)cc1[N+](=O)[O-]", "Potency": "inconclusive [activator, full curve]"},
      {"smiles": "CC1CCN(CC(=O)Nc2ccccc2-c2ccccc2)CC1", "Potency": "inconclusive [activator, partial curve, poor fit]"},
      {"smiles": "O=C1c2ccccc2C(=O)c2[nH]cnc21", "Potency": "inactive"},
      {"smiles": "CN(CC(=O)Nc1ccccc1Br)C(=O)CCCSc1nc2ccccc2[nH]1", "Potency": "inactive"},
      {"smiles": "CCC(=O)Nc1ccc(NC(=S)NC(=O)Cc2ccccc2)cc1", "Potency": "inconclusive [activator, single point]"},
      {"smiles": "CCN1CCN(c2ccc(NC(=O)COc3ccccc3Cl)cc2)CC1", "Potency": "inconclusive [activator, single point]"},
      {"smiles": "COC(=O)c1ccc(COC(=O)c2ccc(SC)cc2OC)cc1", "Potency": "inactive"},
      {"smiles": "CC(=O)C1=C(C)NC(SCC(=O)c2ccc(Cl)cc2Cl)=C(C#N)C1c1ccco1", "note": "(stereo unspecified)", "Potency": "inactive"},
      {"smiles": "CN1N=C2c3ccccc3CCC2C1c1ccc(F)cc1", "note": "(stereo unspecified)", "Potency": "inactive"},
      {"smiles": "CC(C(=O)N1CCc2ccccc21)N1CCc2ccccc2C1", "note": "(stereo unspecified)", "Potency": "inactive"},
      {"smiles": "CC(=O)c1ccc(NS(=O)(=O)c2cc(-c3cnc(C4CC4)o3)ccc2C)cc1", "Potency": "inconclusive [activator, single point]"},
      {"smiles": "Cn1c(=O)c(C(=O)CSc2nnc(Nc3ccccc3)s2)c(N)n(Cc2ccccc2)c1=O", "Potency": "inconclusive [activator, partial curve]"},
      {"smiles": "Cc1ccc(Cn2c(=O)n(-c3ccccc3)c(=O)c3ccc(C(=O)NCc4ccco4)cc32)cc1", "Potency": "inconclusive [activator, partial curve, poor fit]"},
      {"smiles": "COc1ccccc1C(=O)Nc1c(C(=O)N(CCN(C)C)Cc2ccco2)oc2ccccc12", "Potency": "inconclusive [activator, partial curve]"},
      {"smiles": "CN(C)c1ccc(N=Cc2cccn2C)cc1", "Potency": "inconclusive [activator, single point]"},
      {"smiles": "CN(C)CCCN(C(=O)c1ccc(S(=O)(=O)N(C)Cc2ccccc2)cc1)c1nc2c(F)cccc2s1", "Potency": "inconclusive [activator, single point]"},
      {"smiles": "COc1ccc(Cl)cc1NC(=O)c1ccco1", "Potency": "inconclusive [activator, single point]"},
      {"smiles": "Cc1c(/C=C/C(=O)c2ccc(O)cc2)cnn1C", "Potency": "inactive"},
      {"smiles": "CCCCC(c1nnnn1C1CCCC1)N1CCN(C2CCCCC2)CC1", "note": "(stereo unspecified)", "Potency": "inconclusive [activator, partial curve, poor fit]"},
      {"smiles": "COc1ccc(Nc2c(-c3ccco3)nc3ccc(C)cn23)cc1", "Potency": "inactive"},
      {"smiles": "COc1ccc(Cl)cc1NC(=O)CN(C)C(=O)c1sccc1-c1ccccc1", "Potency": "inactive"},
      {"smiles": "Cc1cc(Nc2ccccc2)nc(N2CCN(C(=O)c3ccc4c(c3)OCO4)CC2)n1", "Potency": "inconclusive [activator, single point]"},
      {"smiles": "O=C(Cc1ccccc1F)NC1CCCN(Cc2ccc(Cl)cc2)C1", "note": "(stereo unspecified)", "Potency": "inconclusive [activator, partial curve, poor fit]"},
      {"smiles": "COc1cccc(OC)c1C(=O)NC(=S)Nc1cc(-c2nc3ccccc3[nH]2)ccc1Cl", "Potency": "inconclusive [activator, partial curve, poor fit]"},
      {"smiles": "Cc1nn(Cc2ccc(C(=O)Nc3ccccc3F)cc2)c(C)c1Cl", "Potency": "active: 23.1 µM"},
      {"smiles": "CCN(CC)CC#CCC(O)(c1ccccc1)c1ccccc1", "Potency": "inconclusive [activator, partial curve, poor fit]"},
      {"smiles": "CCCCNC(=S)NC(=O)c1ccc([N+](=O)[O-])cc1", "Potency": "inactive"},
      {"smiles": "O=C(O)C1C(c2ccccc2)c2ccccc2C(O)C1CO", "note": "(stereo unspecified)", "Potency": "inconclusive [activator, single point]"},
      {"smiles": "O=C(O)CN1C(=O)/C(=C\\c2cccc(OCc3ccccc3F)c2)SC1=S", "Potency": "inconclusive [activator, single point]"},
      {"smiles": "CC1(c2nnc(-c3ccc(F)cc3)o2)CC(c2ccc([N+](=O)[O-])cc2)=NO1", "note": "(stereo unspecified)", "Potency": "inactive"},
      {"smiles": "NNC(=O)c1cc(-c2ccc(O)cc2)nc2ccc(Br)cc12", "Potency": "inconclusive [activator, partial curve, poor fit]"},
      {"smiles": "Cc1ccc(/C=C/C(=O)N2CCN(S(=O)(=O)c3c(C)c(C)cc(C)c3C)CC2)o1", "Potency": "inconclusive [activator, single point]"},
      {"smiles": "CCC[C@@H]1C[C@@]1(CCC)[C@@H](NC(=O)c1ccccc1)c1ccc(C(=O)OC)cc1", "Potency": "inconclusive [activator, full curve, poor fit]"},
      {"smiles": "CCOc1ccccc1N(C(=O)c1snc(C(N)=O)c1N)C(C(=O)NC1CCCC1)c1cccs1", "note": "(stereo unspecified)", "Potency": "inconclusive [activator, single point]"},
      {"smiles": "COc1cc(C(=O)NCc2ccc(-c3nc4ccccc4o3)cc2)cc(OC)c1OC", "Potency": "inconclusive [activator, full curve, poor fit]"},
      {"smiles": "COc1ccccc1C(=O)NCC(=O)OC(C)C(=O)NC1CCCCC1C", "note": "(stereo unspecified)", "Potency": "inactive"},
      {"smiles": "COc1cc2c(cc1O)C(SC)=NC(C)(C)C2", "Potency": "inconclusive [activator, single point]"},
      {"smiles": "COc1ccc(S(=O)(=O)Cc2ccc(C(=O)NCc3cccnc3)o2)cc1", "Potency": "inactive"},
      {"smiles": "CN(C)c1ccc(N=C/C=C2\\N(C)c3ccccc3C2(C)C)cc1", "Potency": "inconclusive [activator, single point]"},
      {"smiles": "CCC/C(C#Cc1ccsc1)=C1/c2ccccc2C(=O)N1c1ccccc1", "Potency": "active: 23.1 µM"},
      {"smiles": "CCOC(=O)[C@H]1[C@H]2COc3ccc(Cl)cc3[C@@H]2N2C(=O)c3cc(C)ccc3NC(=O)[C@@]12C", "Potency": "inconclusive [activator, partial curve, poor fit]"},
      {"smiles": "COc1ccccc1C(=O)NC(=O)COC(=O)c1ccc(C)o1", "Potency": "inconclusive [activator, full curve, poor fit]"},
      {"smiles": "ClCC1=Nc2ccccc2Cc2ccccc21", "Potency": "inactive"},
      {"smiles": "COc1cccc(NC(=O)Nc2nnc(Cc3ccccc3F)s2)c1", "Potency": "active: 14.6 µM"},
      {"smiles": "S=c1[nH]nc(COc2ccccc2)n1/N=C/c1ccc(Cl)c(Cl)c1", "Potency": "inconclusive [activator, single point]"},
      {"smiles": "Cc1ccc(S(=O)(=O)Cc2ccc(C(=O)N3CCN(c4ccc(F)cc4)CC3)o2)cc1", "Potency": "inconclusive [activator, single point]"},
      {"smiles": "CCOC(=O)c1cc([N+](=O)[O-])sc1NC(=O)c1ccc(S(=O)(=O)N2CC3(C)CC2CC(C)(C)C3)cc1", "note": "(stereo unspecified)", "Potency": "inconclusive [activator, full curve]"}
    ]}
  ]
}
